In the supplement of paper PMC9446081:
The whole screen tested about 39,000 compounds, of which about 220 (0.56%) showed activity. The list shows a part of the results.

test system: Escherichia coli K-12 BW25113; test: relative growth (OD600 normalised to plate interquartile mean) (fraction); higher = less growth inhibition, active = 0.2 or less; settings: 50 µM; LB; incubation time: overnight (16-24 h)
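Note: static incubation at 37 °C against the wild-type strain, values averaged over two biological replicates.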

**Q.** With `CO[C@H]1CN(C)C(=O)c2cc(NS(=O)(=O)c3ccccc3C)ccc2OC[C@H](C)N(S(C)(=O)=O)C[C@H]1C` as the compound, how does the relative growth read?
**A.** inactive: 0.984

**Q.** With `C[C@H](CO)N1C[C@H](C)[C@@H](CN(C)Cc2ccncc2)Oc2ccc(NC(=O)CCCN(C)C)cc2CC1=O` as the compound, how does the relative growth read?
**A.** inactive: 0.956

**Q.** How did the relative growth turn out when `C[C@@H]1CN([C@H](C)CO)C(=O)c2cc(NC(=O)Nc3ccccc3)ccc2O[C@@H](C)CCCCO[C@@H]1CN(C)Cc1ccccc1` was run?
**A.** inactive: 0.964

**Q.** Which relative growth does the source give for `CCC(=O)c1ccc(C)s1` here?
**A.** inactive: 0.983

**Q.** `C[C@@H]1CN([C@H](C)CO)C(=O)c2cccc(NC(=O)Nc3ccc(F)cc3)c2O[C@@H]1CN(C)CC1CCCCC1` was tested. Which relative growth did it give?
**A.** inactive: 0.976

**Q.** Which relative growth does the source give for `COc1ccc(S(=O)(=O)N(C)C[C@H]2Oc3ccc(NC(=O)C4CC4)cc3CC(=O)N([C@@H](C)CO)C[C@H]2C)cc1` here?
**A.** inactive: 1

**Q.** `C[C@H](CO)N1C[C@H](C)[C@H](CN(C)C(=O)Nc2cccc3ccccc23)Oc2ccc(NC(=O)Cc3cn(C)c4ccccc34)cc2C1=O` was tested. Which relative growth did it give?
**A.** inactive: 1.01

**Q.** How did the relative growth turn out when `C[C@@H]1CCCCO[C@H](CN(C)Cc2ccncc2)[C@@H](C)CN([C@@H](C)CO)C(=O)c2cc(NC(=O)c3ccccc3)ccc2O1` was run?
**A.** inactive: 0.958

**Q.** `C[C@H]1CN([C@@H](C)CO)C(=O)Cc2cc(NC(=O)Nc3ccc(C(F)(F)F)cc3)ccc2O[C@H]1CN(C)C(=O)Nc1ccc(C(F)(F)F)cc1` was tested. Which relative growth did it give?
**A.** inactive: 1.01

**Q.** Which relative growth does the source give for `Cc1noc(C)c1NC(=O)N(C)C[C@H]1Oc2ccc(NC(=O)Nc3cccc4ccccc34)cc2CC(=O)N([C@@H](C)CO)C[C@H]1C` here?
**A.** inactive: 1

**Q.** How did the relative growth turn out when `C[C@H]1CN([C@@H](C)CO)C(=O)c2cccc(NC(=O)NC3CCCCC3)c2O[C@@H]1CN(C)Cc1ccc(Oc2ccccc2)cc1` was run?
**A.** inactive: 0.952

**Q.** `COc1cc2c(NC3CCN(C(C)C)CC3)nc(N3CCC(F)(F)CC3)nc2cc1OCCCN1CCCC1` was tested. Which relative growth did it give?
**A.** inactive: 0.976

**Q.** How did the relative growth turn out when `C[C@@H]1CN([C@H](C)CO)C(=O)c2cc(NC(=O)NC3CCCCC3)ccc2O[C@@H]1CN(C)S(=O)(=O)c1cn(C)cn1` was run?
**A.** inactive: 0.984

**Q.** `C[C@H](CO)N1C[C@H](C)[C@@H](CN(C)S(=O)(=O)c2ccc(C#N)cc2)OCc2cn(nn2)CCCC1=O` was tested. Which relative growth did it give?
**A.** inactive: 0.942

**Q.** `COc1cccc(C(=O)NCC(=O)O)c1` was tested. Which relative growth did it give?
**A.** inactive: 1.04

**Q.** Which relative growth does the source give for `C[C@@H]1CN([C@H](C)CO)C(=O)c2cc(NC(=O)C3CC3)ccc2O[C@H]1CN(C)Cc1ccc(Oc2ccccc2)cc1` here?
**A.** inactive: 0.89

**Q.** `Cc1ccc(OC(=O)N(C)C[C@@H]2OCc3ccccc3-c3ccccc3C(=O)N([C@@H](C)CO)C[C@@H]2C)cc1` was tested. Which relative growth did it give?
**A.** inactive: 1.01

**Q.** For `CC1OC(n2cc(F)c(=O)[nH]c2=O)C(O)C1O` (stereo not given), which relative growth is on record?
**A.** inactive: 1

**Q.** Which relative growth does the source give for `COc1ccc(NC(=O)Nc2ccc3c(c2)C(=O)N([C@@H](C)CO)C[C@@H](C)[C@H](CN(C)CC2CCCCC2)OCCCC[C@@H](C)O3)cc1` here?
**A.** inactive: 0.971

**Q.** With `O=c1cc(-c2ccccc2O)oc2cc(O)ccc12` as the compound, how does the relative growth read?
**A.** inactive: 1.08

**Q.** For `C[C@@H]1CN([C@@H](C)CO)C(=O)Cc2cc(NC(=O)Cc3ccccc3)ccc2O[C@@H]1CN(C)S(=O)(=O)c1ccccc1`, which relative growth is on record?
**A.** inactive: 1.01

**Q.** How did the relative growth turn out when `C[C@H]1CN([C@@H](C)CO)C(=O)c2c(c3ccccc3n2C)-c2ccccc2CO[C@@H]1CN(C)Cc1cccc(O)c1` was run?
**A.** inactive: 1

**Q.** How did the relative growth turn out when `C[C@H](CO)N1C[C@H](C)[C@H](CN(C)S(=O)(=O)c2cn(C)cn2)Oc2ccc(NS(C)(=O)=O)cc2CC1=O` was run?
**A.** inactive: 0.993

**Q.** `C[C@H](CO)N1C[C@H](C)[C@@H](CN(C)S(=O)(=O)c2cn(C)cn2)Oc2ccc(NC(=O)Nc3ccccc3)cc2CC1=O` was tested. Which relative growth did it give?
**A.** inactive: 0.955

**Q.** Which relative growth does the source give for `CC(O)(CN)C1CC1` (stereo not given) here?
**A.** inactive: 1.01

**Q.** Which relative growth does the source give for `O=C(C[C@@H]1C=C[C@H](NC(=O)Nc2ccc3c(c2)OCO3)[C@H](CO)O1)NCCCN1CCOCC1` here?
**A.** inactive: 1.03

**Q.** `Cc1ccc(S(=O)(=O)N[C@H]2CC[C@H](CCNC(=O)CN3CCOCC3)O[C@H]2CO)cc1` was tested. Which relative growth did it give?
**A.** inactive: 0.979

**Q.** Which relative growth does the source give for `C[C@H]1CN([C@@H](C)CO)C(=O)Cc2cc(NC(=O)Nc3ccccc3)ccc2O[C@H]1CN(C)Cc1ccc(Cl)c(Cl)c1` here?
**A.** inactive: 0.978

**Q.** For `C[C@@H]1CN([C@H](C)CO)C(=O)c2cc(NS(=O)(=O)c3cn(C)cn3)ccc2O[C@H]1CN(C)S(=O)(=O)c1ccc(Cl)cc1`, which relative growth is on record?
**A.** inactive: 1

**Q.** How did the relative growth turn out when `COc1cc(CCC(=O)O)oc(=O)c1` was run?
**A.** inactive: 0.969

**Q.** Which relative growth does the source give for `COc1oc(C(=O)NC2CCCCC2)c(-c2ccc(Cl)cc2)c1S(=O)(=O)/C=C/c1ccccc1` here?
**A.** inactive: 0.875

**Q.** How did the relative growth turn out when `C[C@@H]1CN([C@@H](C)CO)C(=O)Cc2cc(NC(=O)Nc3cccc4ccccc34)ccc2O[C@H]1CN(C)CC1CCCCC1` was run?
**A.** inactive: 1.05

**Q.** With `C[C@@H]1CCCCO[C@H](CN(C)S(=O)(=O)c2ccc(F)cc2)[C@@H](C)CN([C@H](C)CO)C(=O)c2cc(NS(C)(=O)=O)ccc2O1` as the compound, how does the relative growth read?
**A.** inactive: 1.03

**Q.** Which relative growth does the source give for `O=C(Cc1ccccn1)NCC[C@@H]1CC[C@H](NC(=O)CN2CCOCC2)[C@H](CO)O1` here?
**A.** inactive: 0.962

**Q.** For `C[C@@H](N)CO`, which relative growth is on record?
**A.** inactive: 1.02

**Q.** `C[C@@H]1CN([C@@H](C)CO)C(=O)c2cccc(NS(=O)(=O)c3cn(C)cn3)c2O[C@H]1CN(C)S(=O)(=O)c1ccc(Cl)cc1` was tested. Which relative growth did it give?
**A.** inactive: 1

**Q.** With `Nc1cc(=O)nc2sc(C3CC3)nn12` as the compound, how does the relative growth read?
**A.** inactive: 1.02

**Q.** With `COc1ccc2c3c([nH]c2c1)[C@H](CO)N(Cc1ccccc1)C[C@]13CCN(CC1)C(=O)Nc1cccc(c1)F` as the compound, how does the relative growth read?
**A.** inactive: 0.996

**Q.** How did the relative growth turn out when `O=C(C1=C[C@H](c2ccsc2)C[C@H](OCCCCO)O1)N1CCN(Cc2ccc3c(c2)OCO3)CC1` was run?
**A.** inactive: 1.01

**Q.** With `Nc1nc2c(ncn2COCCO)c(=O)[nH]1` as the compound, how does the relative growth read?
**A.** inactive: 1.06

**Q.** For `CNC[C@@H]1Oc2ccc(NC(=O)CCN3CCOCC3)cc2CC(=O)N([C@H](C)CO)C[C@H]1C`, which relative growth is on record?
**A.** inactive: 0.987

**Q.** How did the relative growth turn out when `CN(C)CCOc1ccc([N+](=O)[O-])cn1` was run?
**A.** inactive: 1.01

**Q.** Which relative growth does the source give for `C[C@@H]1CN([C@@H](C)CO)C(=O)Cc2cc(NS(=O)(=O)c3ccccc3)ccc2O[C@H]1CN(C)S(C)(=O)=O` here?
**A.** inactive: 1

**Q.** How did the relative growth turn out when `CNC[C@@H]1OCCCC[C@@H](C)Oc2ccc(NS(=O)(=O)c3c(C)noc3C)cc2C(=O)N([C@H](C)CO)C[C@H]1C` was run?
**A.** inactive: 0.984

**Q.** Which relative growth does the source give for `C[C@H]1CN([C@@H](C)CO)C(=O)c2cc(NC(=O)Nc3cccc4ccccc34)ccc2O[C@@H]1CN(C)C(=O)Nc1ccc(F)cc1` here?
**A.** inactive: 1

**Q.** How did the relative growth turn out when `C[C@H](CO)N1C[C@H](C)[C@@H](CN(C)S(=O)(=O)c2cn(C)cn2)Oc2c(NC(=O)Nc3ccccc3)cccc2C1=O` was run?
**A.** inactive: 1

**Q.** Which relative growth does the source give for `CC(C)NC(=O)N(C)C[C@@H]1OCCCC[C@H](C)Oc2ccc(NS(C)(=O)=O)cc2C(=O)N([C@@H](C)CO)C[C@H]1C` here?
**A.** inactive: 0.991

**Q.** For `C[C@@H]1CN([C@H](C)CO)S(=O)(=O)c2ccc(C#CC3CCCC3)cc2O[C@@H]1CN(C)Cc1cncnc1`, which relative growth is on record?
**A.** inactive: 0.979

**Q.** Which relative growth does the source give for `COc1ccc([Si](C)(C)[C@H]2[C@H](CCO)O[C@@]3(C(=O)N(Cc4cccc(N5CCCCC5=O)c4)c4ccccc43)[C@@H]2C)cc1` here?
**A.** inactive: 1

**Q.** `C[C@H]1CN([C@@H](C)CO)S(=O)(=O)c2ccc(C3=CCCCC3)cc2O[C@H]1CN(C)C(=O)C1CCOCC1` was tested. Which relative growth did it give?
**A.** inactive: 0.997

**Q.** `C[C@@H]1CN([C@H](C)CO)C(=O)c2cccc(NC(=O)Nc3ccc4c(c3)OCO4)c2O[C@@H]1CN(C)Cc1ccc(Oc2ccccc2)cc1` was tested. Which relative growth did it give?
**A.** inactive: 0.993

**Q.** With `CC(C)(CCCCCC(O)CCCCCC(C)(C)C(=O)O)C(=O)O` as the compound, how does the relative growth read?
**A.** inactive: 1.02

**Q.** How did the relative growth turn out when `C[C@H](CO)N1C[C@H](C)[C@@H](CN(C)S(=O)(=O)c2ccc(Oc3ccccc3)nc2)OCc2cnnn2CCCC1=O` was run?
**A.** inactive: 1

**Q.** Which relative growth does the source give for `C[C@@H]1CN([C@@H](C)CO)C(=O)CCCn2cc(nn2)CO[C@H]1CN(C)Cc1ccc(C(=O)Nc2ccccc2N)cc1` here?
**A.** inactive: 0.989

**Q.** With `Nc1nc(/C(=N/O)C(=O)N[C@@H]2C(=O)N3C(C(=O)O)=C(/C=C4\CCN([C@@H]5CCNC5)C4=O)CS[C@H]23)ns1` as the compound, how does the relative growth read?
**A.** active: 0.0367

**Q.** Which relative growth does the source give for `COc1ccccc1C#Cc1ccc2c(c1)O[C@@H](CN(C)Cc1cccnc1)[C@@H](C)CN([C@@H](C)CO)S2(=O)=O` here?
**A.** inactive: 1.03

**Q.** Which relative growth does the source give for `Cn1cnc(S(=O)(=O)N2C[C@@H](O)COC[C@H]3O[C@H](CC(=O)N4CCN(c5ccccc5)CC4)CC[C@@H]32)c1` here?
**A.** inactive: 1.01

**Q.** Which relative growth does the source give for `CC(=O)NCCCC[C@@H]1NC(=O)[C@@H]2C[C@H](C(=O)NCc3ccc(F)cc3)[C@H](c3ccc(O)cc3)N2C1=O` here?
**A.** inactive: 1.02

**Q.** Which relative growth does the source give for `C[C@@H](N)[C@H]1CC[C@H](C(=O)Nc2ccncc2)CC1` here?
**A.** inactive: 1

**Q.** For `Cc1ccc(S(=O)(=O)Nc2ccc3c(c2)C(=O)N([C@H](C)CO)C[C@@H](C)[C@H](CN(C)S(C)(=O)=O)OCCCC[C@@H](C)O3)cc1`, which relative growth is on record?
**A.** inactive: 0.985

**Q.** `Cc1ccc(S(=O)(=O)Nc2cccc3c2O[C@@H](CN(C)S(=O)(=O)c2cn(C)cn2)[C@H](C)CN([C@H](C)CO)C3=O)cc1` was tested. Which relative growth did it give?
**A.** inactive: 1.01

**Q.** Which relative growth does the source give for `Cc1cc(C(=O)Nc2cccc3c2O[C@H](CN(C)C(=O)Nc2c(C)noc2C)[C@@H](C)CN([C@@H](C)CO)C3=O)n(C)n1` here?
**A.** inactive: 1

**Q.** `COc1ccc(CN(C)C[C@H]2OCCCC[C@@H](C)Oc3ccc(NC(=O)C4CCCCC4)cc3C(=O)N([C@@H](C)CO)C[C@H]2C)cc1` was tested. Which relative growth did it give?
**A.** inactive: 0.97

**Q.** For `C[C@H](CO)N1C[C@H](C)[C@H](CN(C)Cc2ccc(C(=O)O)cc2)Oc2ncc(C#CCN(C)C)cc2C1=O`, which relative growth is on record?
**A.** inactive: 1.01

**Q.** With `Nc1ccn([C@@H]2O[C@H](CO)C[C@H]2O)c(=O)n1` as the compound, how does the relative growth read?
**A.** inactive: 0.972
